Experimental data reported in PMC4336329 (PLoS ONE, 2015).
The whole screen tested about 310,000 compounds, of which about 14,000 (4.5%) showed an effect of 50% or more. Effects have a minus sign here. This is one part of the list.

molecular target: human ether-à-go-go-related gene (hERG) potassium channel (human, UniProt Q12809); assay: primary screen, population patch clamp on CHO cells stably expressing hERG
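Also: peak tail current of the secondary pulse compared with the same well before compound.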

Sequence of human ether-à-go-go-related gene (hERG) potassium channel (Q12809 whole entry, looked up): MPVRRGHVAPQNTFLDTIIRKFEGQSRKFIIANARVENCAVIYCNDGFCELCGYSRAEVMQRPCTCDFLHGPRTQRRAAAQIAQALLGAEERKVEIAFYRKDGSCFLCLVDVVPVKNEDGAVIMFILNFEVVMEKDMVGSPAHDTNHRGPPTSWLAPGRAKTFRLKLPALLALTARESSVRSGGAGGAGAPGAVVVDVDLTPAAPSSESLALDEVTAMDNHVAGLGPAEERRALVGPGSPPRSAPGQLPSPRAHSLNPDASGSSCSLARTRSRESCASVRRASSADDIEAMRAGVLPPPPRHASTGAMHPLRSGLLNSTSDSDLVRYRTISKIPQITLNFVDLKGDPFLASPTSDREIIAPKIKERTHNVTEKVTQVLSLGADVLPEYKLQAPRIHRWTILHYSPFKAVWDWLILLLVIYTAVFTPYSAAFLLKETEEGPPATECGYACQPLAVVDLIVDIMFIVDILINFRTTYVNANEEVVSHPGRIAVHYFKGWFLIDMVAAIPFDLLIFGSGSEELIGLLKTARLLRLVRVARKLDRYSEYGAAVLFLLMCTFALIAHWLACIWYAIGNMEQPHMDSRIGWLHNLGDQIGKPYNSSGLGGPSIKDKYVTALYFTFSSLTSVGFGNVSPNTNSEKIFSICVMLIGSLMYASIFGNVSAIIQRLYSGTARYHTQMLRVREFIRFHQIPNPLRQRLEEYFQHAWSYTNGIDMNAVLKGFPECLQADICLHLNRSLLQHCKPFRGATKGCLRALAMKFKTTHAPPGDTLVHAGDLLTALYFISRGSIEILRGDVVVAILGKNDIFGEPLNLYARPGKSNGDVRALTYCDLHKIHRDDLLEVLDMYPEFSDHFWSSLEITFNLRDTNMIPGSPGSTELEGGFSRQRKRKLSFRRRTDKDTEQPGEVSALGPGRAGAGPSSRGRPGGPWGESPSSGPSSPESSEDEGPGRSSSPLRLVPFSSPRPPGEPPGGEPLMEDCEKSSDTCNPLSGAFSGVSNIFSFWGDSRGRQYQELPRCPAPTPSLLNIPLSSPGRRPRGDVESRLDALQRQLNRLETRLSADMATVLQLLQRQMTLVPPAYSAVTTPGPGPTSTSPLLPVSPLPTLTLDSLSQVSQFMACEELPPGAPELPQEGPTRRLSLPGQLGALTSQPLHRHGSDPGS

SMILES	hERG current change (%, negative = inhibition) at 10uM [%]
CC1=C(C(=O)Nc2ccccn2)C(c2ccc(N(C)C)cc2)n2ncnc2N1 (centres unmarked)	-62.7
Nc1ccc(Sc2ccc([N+](=O)[O-])cc2)cc1	5.09
O=C(CCNC(=O)c1ccc(Br)cc1)NCCCc1ccccc1	-4.7
CCCN(C(=O)CSCC(=O)Nc1cccc(C)c1)c1c(N)n(Cc2ccccc2)c(=O)[nH]c1=O	6.24
Cc1ccc2nc(NS(C)(=O)=O)sc2c1	16.8
Cc1ccc(C(=O)NC2CCCC(C)C2C)cc1S(=O)(=O)N1CCCCC1 (centres unmarked)	-20.6
CCOC(=O)c1cnc(-n2nc(C)cc2C)nc1N1CC(C)OC(C)C1 (centres unmarked)	-13
CCNC(=O)COC(=O)c1ccc(-n2nc(C)cc2C)cc1	-5.43
CC1=NN(c2nc(C)cc(C)n2)C(=O)C1CCC(C)C (centres unmarked)	-1.94
CCOC(=O)c1c(C)[nH]c(C)c1S(=O)(=O)NCCc1ccco1	-4.93
Cc1cc(C)n(-c2ccc(C(=O)OCC(=O)c3ccc(Br)s3)cc2)n1	2.52
O=C(C1CCCO1)N1CCc2ccccc21 (centres unmarked)	17.1
O=C(Nc1ccccc1C(=O)O)c1cccc(S(=O)(=O)Nc2ccc(Br)cc2)c1	16.8
Cc1sc2nc(SCC(=O)C(C)(C)C)n(Cc3ccco3)c(=O)c2c1C	20.4
O=C1NC(=S)CN1c1ccccc1	9.45
O=C(Nc1cccc2ccccc12)N1CCOCC1	30.5
Cc1cccc(C)c1NC(=O)c1sccc1SCc1cccc(C(F)(F)F)c1	-4.76
COc1cc(/C=C/C(=O)OCC(=O)N2CCOCC2)ccc1OCC#N	12.4
Cc1ccnc(NC(=O)Nc2cccc(F)c2)n1	2.88
COc1ccc(NC(C)(C)c2nnnn2-c2c(C)cccc2C)cc1	-4.2
COC(=O)c1ccc(CSc2nnc(CNC(=O)c3ccccc3F)o2)o1	-14.5
O=S(=O)(Nc1ccon1)c1ccc(Br)s1	14.9
CCc1ccc(OCC(=O)NC(NC(=S)Nc2ccccc2)C(Cl)(Cl)Cl)cc1 (centres unmarked)	21.7
Nc1ncnc(Oc2cccc(C(F)(F)F)c2)c1[N+](=O)[O-]	-0.217
CN1CCN(c2nc(-c3cc4ccccc4o3)cs2)CC1	-16.9
COc1ccccc1CNC(=O)CNCCc1ccc(OC)c(OC)c1.O=C(O)C(=O)O	-1.23
